Data published in patent US20130085101A1 (CASE WESTERN RESERVE UNIVERSITY, published 2013).
Each block holds one binder with its values, some of them ahead of it.

Tests used:
[1] = molecular target: T1, human Type 1 IGF receptor (human); test: competitive displacement of 125I-Tyr31-IGF-I; FLAG-tagged IGF-1R captured on anti-FLAG plate
T1 construct: mature; also called IGF-1R; Insulin-like Growth Factor Receptor

[2] = molecular target: T1, human Type 1 IGF receptor; test: competitive displacement of 125I-Tyr31-IGF-I; FLAG-tagged IGF-1R captured on anti-FLAG plate; zinc-free
[3] = molecular target: T1, human Type 1 IGF receptor; test: competitive displacement receptor-binding assay on IGF-1R
[4] = molecular target: T2, Human Insulin Receptor Isoform A (human); test: receptor-binding assay on HIRA (details not given for this isoform)
T2 construct: Isoform A is the short isoform of; also called HIRA

relative affinity [1]: 0.92 percent (of IGF-I for IGF-1R) | Kd [2]: 3.1 nM
B1: insulin glargine ([Gly^A21, Arg^B31, Arg^B32]-insulin) (ligand)
chain 1: not shown
chain 2: not shown
notes: Assayed as zinc-free monomer; also called Lantus

Kd [3]: 65.3 nM | Kd [4]: 0.016 nM
B2: HisA4, A8 KP-ins (ligand)
chain 1: not shown
chain 2: not shown
notes: also called [His^A4, His^A8]-KP insulin; A4A8-lispro
